# Measured values published in the supplement of paper PMC4723716.
# The full ranking holds about 3,600 compounds; the median of “viability index relative to DMSO control” is about 0.81, and the lowest 2% start at about 0.13. The list shows a part of the results.
# System: Plasmodium falciparum NF54 stage V gametocytes
# Assay: viability index relative to DMSO control (fraction); higher = less gametocyte killing
# Conditions: 1.25 µM, incubation time: 72 h
# 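Note: 384-well serum-free SaLSSA: MitoTracker Red CMXRos staining with saponin lysis, high-content imaging, treated-well particle count divided by plate-mean count of DMSO wells.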
row,Compound,viability index
1,CCOC(=O)c1sc2ncnc(NCc3ccc(F)cc3)c2c1C,1.14
2,CSc1nc(N)c2c3c(sc2n1)CCCC3,0.599
3,Cc1ccc(CNC(=O)CCCCCn2c(SCc3cccc([N+](=O)[O-])c3)nc3ccsc3c2=O)cc1,0.801
4,CCCOC(=O)C1=C(C)NC2=C(C(=O)CC(c3ccc(OC)cc3)C2)C1c1ccc(Cl)cc1Cl (stereo not drawn),0.645
5,O=C1C(Sc2nc[nH]n2)=CC(=NS(=O)(=O)c2cccs2)c2ccccc21,0.707
6,C=CCn1c(SCC(=O)c2cc(C)n(-c3ccccc3F)c2C)nc2sc3c(c2c1=O)CCCC3,0.906
7,Cc1nc(-c2cnccc2C(F)(F)F)sc1C(=O)NN,1.21
8,CN(C)CCCN(Cc1cc2cc3c(cc2[nH]c1=O)OCO3)C(=S)Nc1cccc(Cl)c1,0.703
9,O=C(COc1ccccc1)NC(c1ccco1)c1cc(Cl)c2cccnc2c1O (stereo not drawn),1.03
10,CC(=O)N(C1=C(N(C)C)C(=O)c2ccccc2C1=O)c1ccc(F)cc1,0.0453
11,CN1CCc2c(sc3nc(SCc4ccccc4)n(-c4ccccc4)c(=O)c23)C1,0.879
12,CCOC(=O)c1nc2[nH]c(C)cc(=O)n2n1,0.851
13,COC(=O)c1c(C)oc2ccc(N(C(=O)c3ccc(C)cc3)S(=O)(=O)c3ccccc3)cc12,0.891
14,CCOc1ccc(Nc2nc(NCc3ccco3)c3ccccc3n2)cc1,0.731
15,Cc1nc(CC(=O)N2CCCC(CNC(=O)C3(c4ccc(Cl)cc4)CC3)C2)cs1 (stereo not drawn),0.74
16,CCOc1cc(Br)cc(C=NNC(=O)COc2cccc(C)c2)c1O,1.03
17,NS(=O)(=O)c1ccc(N/C=C/C(=O)c2ccc(Cl)s2)cc1,1.13
18,CCN1C(=Cc2ccc3ccccc3[n+]2CC)C=Cc2sc3ccccc3c21,0.425
19,CC1(C)N=C(N)N=C(N)N1c1ccc(F)cc1,1.05
20,COc1cc(Cl)c(C)cc1NC(=O)C1c2ccccc2C(=O)N(CC(C)C)C1c1cccs1 (stereo not drawn),0.398
21,CN1C=CC=CC1=CC=C1C=Nc2ccccc21,0.778
22,CSc1nnc(-c2cccc([N+](=O)[O-])c2)n1Cc1ccccc1,1.01

row,Compound,viability index
1,CC1CCCN(C(=O)C2CCN(Cc3ccccn3)CC2)C1 (stereo not drawn),1.01
2,Cc1ccc(NC2=C(N3CCCCC3)C(=O)c3ccccc3C2=O)cc1,0.735
3,CCOC(=O)C1=C(C)NC2=C(C(=O)C(C(=O)OCC)C(c3cccc(OC)c3)C2)C1c1ccc(OC)c(OC)c1 (stereo not drawn),0.425
4,CCCOc1ccc(C(=O)Nc2cccc(-c3nc4ncccc4o3)c2)cc1,0.984
5,CC(C)c1ccc2c(c1)c1c3c([n+](C)ccn32)CCC1,1.22
6,CCOc1ccc(C2c3[nH]c4ccccc4c3CCN2C(=O)c2cc3cc(Br)ccc3o2)cc1 (stereo not drawn),0.672
7,O=C(Cc1cccs1)N1CCOc2c(cc(-c3csc4ccccc34)cc2OCCc2ccccn2)C1,0.346
8,CCCc1nc2ccc(NC(=O)NCC)cc2c(=O)n1Cc1ccc(-c2ccccc2)cc1,0.595
9,O=C1CC(c2ccc(O)cc2)C2=C(CC(c3ccccc3Cl)CC2=O)N1 (stereo not drawn),0.659
10,COc1ccc(C(NC(=O)COc2ccccc2)c2cc(Cl)c3cccnc3c2O)cc1OC (stereo not drawn),0.742
11,CCOC(=O)CCCSc1nc(-c2cccs2)cc(C(F)(F)F)c1C#N,0.71
12,O=C1C(Nc2ccc(O)cc2)=CC(=NS(=O)(=O)c2cccs2)c2ccccc21,0.306
13,COc1cc(NC(=O)Cn2ccc3ccc([N+](=O)[O-])cc32)cc(OC)c1OC,0.73
14,CN(C)c1ccc(C=CC(=O)NC(=O)c2ccccc2O)cc1,0.642
15,Cc1ccc(C(CCNc2ncnc3c2[nH]c2ccccc23)c2ccco2)cc1 (stereo not drawn),0.561
16,CC1(C)O[C@@H]2OC([C@@H](O)CNc3ccc([N+](=O)[O-])cc3[N+](=O)[O-])C(O)[C@@H]2O1 (stereo partly drawn),0.61
17,CC(=O)N1c2ccccc2NC2=C(C(=O)CCC2)C1c1ccc([N+](=O)[O-])cc1 (stereo not drawn),0.883
18,O=C(c1cc2n(n1)C(C(F)(F)F)CC(c1ccc3c(c1)OCO3)N2)N1CCN(C(c2ccccc2)c2ccccc2)CC1 (stereo not drawn),0.682
19,CCOC(=O)c1[nH]c2ccc(C)cc2c1N=NN(C)C,0.57
20,O[Si](CCCN1CCCCC1)(c1ccccc1)C1CCCCC1 (stereo not drawn),0.371
21,c1ccc2cc3c(N4CCN(CCN5CCN(c6ccnc7cc8ccccc8cc67)CC5)CC4)ccnc3cc2c1,0.663
22,Cc1cccc(NC(=O)c2sc3nc4c(c(-c5cccs5)c3c2N)CCCCC4)c1,1.01

row,Compound,viability index
1,Clc1ccc2c(N3CCC(n4cccc4)CC3)ccnc2c1,0.556
2,OC1=C2C(=Nc3ccccc3SC2c2ccccc2)c2ccccc21 (stereo not drawn),0.667
3,Cc1ccccc1S(=O)Cc1ccc(C(=O)N2CCN(c3ccccn3)CC2)o1 (stereo not drawn),0.744
4,CCCCCCCC[n+]1c(C)n(CC)c2ccc(Cl)cc21,0.772
5,c1ccc(-c2nc3cc4ccccc4cc3nc2-c2ccsc2)cc1,0.834
6,COC(=O)CNC(=O)c1sc2ncn(CC(=O)Nc3ccccc3OC)c(=O)c2c1C,0.805
7,Oc1nnc(SCc2nc3ccccc3s2)n1Cc1ccco1,0.954
8,COc1ccc(-n2c(S)nnc2CNc2cccc(C(F)(F)F)c2)cc1,0.767
9,CCCOC(=O)C1=C(C)NC2=C(C(=O)CC(c3ccc(OC)c(OC)c3)C2)C1c1ccccc1C (stereo not drawn),0.301
10,O=[N+]([O-])c1ccc(N2CCN(C(=S)Nc3ccccc3)CC2)cc1,0.967
11,O=C1NC(=Nc2ccccc2)SC1=Cc1ccc(F)c(Br)c1,0.706
12,COc1ccc(-c2nc(NC(=O)CS(=O)(=O)c3ccccc3)sc2C)cc1,1.02
13,O=C1C(=Cc2ccccc2)Oc2c1ccc(O)c2CN1CCCCC1,1.17
14,CC(NC(=O)C(=O)N1CCCCC1)C(c1cccs1)N1CCOCC1 (stereo not drawn),0.787
15,Fc1ccc(N2CCN(c3ncnc4c3cnn4-c3ccccc3)CC2)cc1,1.07
16,Cc1ccc(Cl)cc1N1C(=O)[C@@H]2[C@H](C1=O)C1c3ccccc3C=CN1[C@@H]2C(=O)c1cccs1 (stereo partly drawn),0.87
17,CCC(C)NCC(O)(c1ccc(Cl)cc1)c1ccc(Cl)cc1 (stereo not drawn),0.699
18,O=C1C2C3c4ccccc4C(c4ccccc43)C2C(=O)N1CCO (stereo not drawn),0.585
19,OC(Cn1cnc(-c2ccccc2)c1-c1ccccc1)Cn1c2ccc(Cl)cc2c2cc(Cl)ccc21 (stereo not drawn),0.534
20,O=C(Nc1ccc(-c2nc3ccccc3[nH]2)cc1)c1ccccc1Oc1ccccc1,0.521
21,COc1ccc(-c2csc(Nc3cccc(Cl)c3C)n2)cc1OC,0.776
22,c1ccc(-c2nc(-c3ccc4cccnc4c3)n(-n3c(-c4ccc5cccnc5c4)nc(-c4ccccc4)c3-c3ccccc3)c2-c2ccccc2)cc1,0.601

row,Compound,viability index
1,Cc1ccc(NC(=O)C2C3C=CC4(O3)C2C(=O)N(CCCN2CCOCC2)C4C(=O)NC2CCCC(C)C2C)cc1Cl (stereo not drawn),0.888
2,FC(F)(F)c1cccc(Nc2nc3nonc3nc2Nc2ccc(Br)cc2)c1,0.479
3,CC(C)NC(=O)c1ccc(OC2CCN(CC3CCCCC3)CC2)c(Cl)c1,0.75
4,OC(CN1CCN(CC=Cc2ccccc2)CC1)Cn1c2ccc(Br)cc2c2cc(Br)ccc21 (stereo not drawn),0.559
5,Cc1cccn2c(=O)c3cc(C(=O)NCc4ccco4)c(=N)n(CCc4ccccc4)c3nc12,1.12
6,COc1cccc(-c2nc(CS(=O)(=O)CC(=O)N3CC(C)CC(C)C3)c(C)o2)c1 (stereo not drawn),0.859
7,CCN1C(=Cc2cccc[n+]2C)Sc2ccccc21,1.22
8,N#Cc1ccc(NC(=O)CCCC(=O)O)cc1,1.04
9,COC(=O)C1=CN(Cc2ccc(Cl)cc2)C=C(C(=O)OC)C1c1ccc(Cl)c(Cl)c1,0.888
10,CCCSc1nc(N)c2c3c(sc2n1)CN(CCC)CC3,0.78
11,CC(C)c1ccc(C=C2SC(=Nc3ccccc3)NC2=O)cc1,0.532
12,COc1ccc(C(=O)NC(c2ccccc2Cl)c2cc(Cl)c3cccnc3c2O)cc1 (stereo not drawn),0.913
13,CC1=C(C(=O)OC(C)C)C(c2ccc([N+](=O)[O-])cc2)C2=C(CC(C)(C)CC2=O)N1 (stereo not drawn),1.15
14,C=CCSc1nc2sc3c(c2c(=O)n1-c1ccccc1)CCN(CCC)C3,0.942
15,COc1cc(C(C(=O)NCc2ccccc2)N(C(=O)c2snc(C(N)=O)c2N)c2ccc(C(C)C)cc2)cc(OC)c1OC (stereo not drawn),0.785
16,COc1cc(NC(C)=C2C(=O)c3ccccc3C2=O)c(OC)cc1Cl,0.933
17,CN(Cc1ccsc1)C(=O)CCc1nnc(CCCc2ccccc2)o1,0.885
18,CCOC(=O)C[n+]1cc(CC)sc1N,0.699
19,O=C(CSc1nc2cc3c(cc2c(=O)n1Cc1ccco1)OCO3)Nc1cc(C(F)(F)F)ccc1Cl,0.731
20,C[C@H]1[C@@H](O)O[C@@H]2O[C@]3(C)CC[C@H]4[C@H](C)CC[C@@H]1C24OO3,0.422
21,Fc1ccc(C(CCNc2ncnc3c2[nH]c2ccccc23)c2ccco2)cc1 (stereo not drawn),0.785
22,CCOC(=O)c1c(N)n(-c2ccc(CC)cc2)c2nc3ccccc3nc12,1.05
